Like-named read-outs stand apart in the source and are kept apart here.
Assays:
GAPDH = assay: Cellular toxicity in other replicons, GAPDH; format: cell-based
[1] = Cellular toxicity in other replicons, MTT
MDCK cells = assay: Cytotoxicity (CPE, Neutral Red) in MDCK cells of the antiviral tests
[2] = HCV 1a (pp1aSI-7) replicon cells

C[C@@]1(F)[C@H](O)[C@@H](CO)O[C@H]1n1ccc(N)nc1=O
> 100 µM: IC90 (GAPDH; [2]) | IC90 (GAPDH; HCV 1b (Btat) replicon cells) | IC90 (GAPDH; HCV 1b (Ntat) replicon cells) | IC90 [1, 2] | IC90 ([1]; HCV 1b (Btat) replicon cells) | IC90 ([1]; HCV 1b (Ntat) replicon cells) | CC50 (MDCK cells; read-out: CC50, CPE, Influenza A (H3N2) test) | CC50 (MDCK cells; read-out: CC50, NR, Influenza A (H1N1) test, Neutral Red) | CC50 (MDCK cells; read-out: CC50, NR, Influenza A (H3N2) test, Neutral Red)

C[C@@]1(O)[C@H](O)[C@@H](CO)O[C@H]1n1ccc(N)nc1=O [2′-C-methylcytidine, reference compound]
> 100 µM: IC90 (GAPDH; [2]) | IC90 (GAPDH; HCV 1b (Btat) replicon cells) | IC90 (GAPDH; HCV 1b (Ntat) replicon cells) | IC90 [1, 2] | IC90 ([1]; HCV 1b (Btat) replicon cells) | IC90 ([1]; HCV 1b (Ntat) replicon cells)
